Measured values as given in the RNAGym collection of RNA variant scans (doi:10.7554/elife.90254).
Read counts are not given, so values of variants with three or more changes are uncertain.

B1: LINE1-full (parent)
chain: UACGUAGGUGGUUUUCCCCUGAUAGUGCUAAGGGGGCCUGGAAGUUUGGACUGGGCAGAGCUCAACACAGCGUGGCAAAGUGGCUGUGGCUAGACUGCCUCUCUGGAUUCCUCGUCACUCAGCAGGGCAUCUCUGAGAGAAAUGCC

Variants of: B1
Experiment: self-cleavage, relative activity (ratio to wild type); higher = more cleavage; in vitro, sequencing; the parent is a self-cleaving ribozyme
For C56U A92G U102C A140G, the self-cleavage was 0.04.
With A24G A31U C63A U85C the self-cleavage was 0.
Variant A42U A64G A77G U112A A136G has a self-cleavage of 0.
Variant G8U U20C U73C U100C A140G has a self-cleavage of 2.63.
A57U A136G A140G showed a self-cleavage of 0.34.
For U14C U15C U130C, the self-cleavage was 0.6.
For A59G U73A G114A, the self-cleavage was 0.06.
Work on U91C U102C C103U A129G yielded a self-cleavage of 0.77.
For U9C U102C A117C, the self-cleavage was 2.63.
C17U C38U A124U gave a self-cleavage of 1.34.
Work on U5A A50G C51U A64G yielded a self-cleavage of 0.
Work on A43G G49A C95A A140U yielded a self-cleavage of 0.04.
U20A U47C G53A A107U A117G A129G showed a self-cleavage of 2.67.
In the case of U1A A67U A124U U134A A141G, the self-cleavage is reported as 0.19.
For U13C G33C U52A A94G, the self-cleavage was 0.75.
With C19U A79U U134G the self-cleavage was 1.23.
A59U A67G U85A gave a self-cleavage of 0.03.
A69U C71U U102C C131U showed a self-cleavage of 0.05.
In the case of U15A A43G U96C, the self-cleavage is reported as 0.57.
U13C A57G C146U showed a self-cleavage of 0.82.
For A57G A78G A94G, the self-cleavage was 0.
U20G U96C U109C showed a self-cleavage of 0.
U14A A22G G40A U85A gave a self-cleavage of 0.05.
A79G G126A U134A gave a self-cleavage of 1.34.
With A42G U73A U87A the self-cleavage was 0.
Work on A6C U9A U119A yielded a self-cleavage of 0.96.
Variant U20A U29A A42G has a self-cleavage of 1.08.
With U12G A42G U46A U100C the self-cleavage was 1.37.
For U13A A22G U62C A67U A79G A141G, the self-cleavage was 0.
U81C A129U A138U showed a self-cleavage of 1.19.
For U12C U73A A94U U109C C123U A124G A140G, the self-cleavage was 0.7.
U15C G25A A65G G88A C99U showed a self-cleavage of 0.03.
Variant U12C G70U U87C U104A has a self-cleavage of 0.06.
Work on U52A C103U U104C yielded a self-cleavage of 1.27.
Variant A42G A117G A136G A140G has a self-cleavage of 0.98.
Variant A2G G27A C38U A77G U81G U143C has a self-cleavage of 0.86.
In the case of A43U A94G U100C C110U, the self-cleavage is reported as 0.58.
A65G U119A A141U U143C gave a self-cleavage of 0.52.
Variant A94G U115C A141G has a self-cleavage of 1.15.
U1C U5A A64U A129G gave a self-cleavage of 0.41.
Variant A50G A69G A77U has a self-cleavage of 0.
In the case of U29C A59G U96A, the self-cleavage is reported as 0.21.
Variant U29C G105A U119C has a self-cleavage of 1.79.
Work on U26C A69G U87A A136G A142G yielded a self-cleavage of 0.
For C38U A69G U108C C116U, the self-cleavage was 0.6.
In the case of C18U U26A U52C A69G A129G A141G, the self-cleavage is reported as 0.
U12A A65G A77G showed a self-cleavage of 0.
Work on U14C U96A U134C A140G yielded a self-cleavage of 0.21.
Work on U39A U108C A136U A138G yielded a self-cleavage of 2.02.
For A59U A121U U134C, the self-cleavage was 0.68.
U12C U13C A22U showed a self-cleavage of 0.51.
With U15C U62G U115C the self-cleavage was 2.04.
U87C A117U A138U gave a self-cleavage of 0.24.
A22G U119C A142G showed a self-cleavage of 1.62.
With U13A A57U A64G the self-cleavage was 0.1.
Variant U9A C19A U39A U115A A129U has a self-cleavage of 1.2.
With A6G U39C A142G the self-cleavage was 0.
Work on U15A A64U U115C U134G yielded a self-cleavage of 0.52.
For U39A U46C A136U, the self-cleavage was 1.45.
In the case of U9C A59G A140U, the self-cleavage is reported as 0.21.
G34U C51A U73C showed a self-cleavage of 1.09.
With U12G C128U A138G C145U the self-cleavage was 0.94.
For U62C A79G U100C A140G, the self-cleavage was 0.
In the case of U96A U132C A136U, the self-cleavage is reported as 0.37.
With G11A U46C U102A U108C U112A the self-cleavage was 2.66.
Work on A31G G49A U108C yielded a self-cleavage of 1.15.
With U15C U20A A43U the self-cleavage was 1.46.
In the case of A30U U39C A136G, the self-cleavage is reported as 1.47.
Work on U15A A67G U87C yielded a self-cleavage of 2.3.
For U15A A77G U96C, the self-cleavage was 0.15.
For U12C U13C U15C U46C U52A U96A, the self-cleavage was 0.
With C17U A31G A43G A50G the self-cleavage was 0.92.
In the case of A42G A64U A140G, the self-cleavage is reported as 0.59.
Work on G7C A69U A77G A141G yielded a self-cleavage of 0.35.
C18A C38A G137U showed a self-cleavage of 0.56.
U20C A65U U85C gave a self-cleavage of 0.04.
Variant U13C U73A U96C A141G A142G has a self-cleavage of 0.23.
Work on U52C A79U U104A A141G yielded a self-cleavage of 2.43.
A6U A78U U104C showed a self-cleavage of 2.36.
In the case of G34A U39A A57U, the self-cleavage is reported as 0.03.
With U15C A24U U45C A142G the self-cleavage was 0.
With A24U A42G G82U U91C A136G the self-cleavage was 1.59.
With U15C A77U G106A C110U the self-cleavage was 1.35.
A43G U45C A57U U134C A140G showed a self-cleavage of 0.13.
G21U C38U A79G U91C showed a self-cleavage of 0.6.
Work on U13C U26C C51U yielded a self-cleavage of 2.09.
In the case of C66U A79G C146U, the self-cleavage is reported as 0.03.
With G35A A50G A64U A94G the self-cleavage was 0.02.
U15A A50G A138G G144U showed a self-cleavage of 0.
A6G U9C A57G gave a self-cleavage of 1.15.
A69U A77U U91C gave a self-cleavage of 0.04.
For A42G U104A A141G, the self-cleavage was 1.55.
U14G U102C U134A A138G showed a self-cleavage of 0.42.
U9C U23A U46C C95U showed a self-cleavage of 0.44.
G36C U85C A121G gave a self-cleavage of 0.45.
G32U A59G A92G C103A G122A gave a self-cleavage of 0.03.
In the case of U73A A124G A129U, the self-cleavage is reported as 1.41.
Work on G7U A77G U104A yielded a self-cleavage of 1.62.
In the case of A2G U20C U143C, the self-cleavage is reported as 0.38.
Work on A57G U102C G135A yielded a self-cleavage of 0.33.
Work on U9A U15C U45A A77G U134A yielded a self-cleavage of 0.45.
Variant U62A G82A U102C has a self-cleavage of 0.03.
G7U U46C U119C gave a self-cleavage of 1.34.
C3A A24C U85A C113U A124G U143C showed a self-cleavage of 0.08.
A69U G83A U108C showed a self-cleavage of 0.01.
A57G A141G A142G showed a self-cleavage of 1.75.
For G7U A57G C61U U130C A136C, the self-cleavage was 0.
With U13C A24G C120A U134C U143C the self-cleavage was 1.39.
For U15C A42U A67G G75U A141G, the self-cleavage was 0.34.
In the case of A43U A67C U73C U104A, the self-cleavage is reported as 0.2.
Work on G35C C51A U119A yielded a self-cleavage of 1.27.
For G35A C56U G106A U115A, the self-cleavage was 0.17.
For A30U A57G A141G, the self-cleavage was 0.69.
In the case of U13C A43G U108C A140G, the self-cleavage is reported as 1.41.
U14C U15A G58A U87A A94G A117C showed a self-cleavage of 0.45.
Work on U73A C120U U130C yielded a self-cleavage of 2.16.
In the case of U9C A79G A124G U143C, the self-cleavage is reported as 0.
G32U G49A U119C A129G gave a self-cleavage of 1.23.
C3U G70A U130C gave a self-cleavage of 0.38.
Work on A77G A79U U96A U119A A140G yielded a self-cleavage of 0.04.
U14C U47A A67G G82A U108C showed a self-cleavage of 0.33.
U26A A64G U100C showed a self-cleavage of 0.84.
G49A A92U U109A gave a self-cleavage of 0.33.
Variant U13C U14C U26C U46A U119G has a self-cleavage of 0.84.
For A65U A79G U115C, the self-cleavage was 0.2.
Variant A31U U52C A78U U100C has a self-cleavage of 2.76.
G72U A78G U87C gave a self-cleavage of 0.31.
For U100C U112C A142G, the self-cleavage was 1.91.
Variant U1A U14C U85C has a self-cleavage of 0.36.
In the case of A57U U85C U132C, the self-cleavage is reported as 0.1.
Variant C51U U52C A65U has a self-cleavage of 0.23.
U52C U87A A124U gave a self-cleavage of 0.
Work on U46A U47A G72A A79G U102C yielded a self-cleavage of 1.26.
For U45A U46G G114A A140G, the self-cleavage was 1.48.
Variant U12C U20A U109C has a self-cleavage of 1.47.
U15C U26C A50G gave a self-cleavage of 0.73.
Variant A6U G34A U85C has a self-cleavage of 0.17.
U26A A136G A140G gave a self-cleavage of 0.36.
U14C U47C C131U A138G gave a self-cleavage of 1.15.
With G21A A22C U132C A141U A142G the self-cleavage was 1.8.
In the case of G40U U112C A117G, the self-cleavage is reported as 2.63.
Variant G70A U81A A92U U115C A117U has a self-cleavage of 0.12.
Variant A94G U119C A136G has a self-cleavage of 0.
C16A C37G A136U A138U showed a self-cleavage of 0.
In the case of U39G A42U U81A, the self-cleavage is reported as 1.7.
In the case of C68U A107G U119A, the self-cleavage is reported as 0.05.
U12G U26C C66U showed a self-cleavage of 0.1.
Work on U15A U85C G86A yielded a self-cleavage of 0.07.
With U13C A24G A64U U115C A117G U132C the self-cleavage was 0.
With G74A U109C U134A A140G the self-cleavage was 0.15.
A24G A50C A124U showed a self-cleavage of 1.47.
Variant U26C A142G U143C has a self-cleavage of 1.74.
U5C U23A U62A gave a self-cleavage of 0.19.
U1C U52A A65G U108C showed a self-cleavage of 0.
Variant U14A U85C U112C has a self-cleavage of 0.33.
U13C C95G A129G gave a self-cleavage of 0.1.
Variant U12G A30U A67G U87C G88A A117C has a self-cleavage of 0.
For U45C A50G A117U A138G A140C, the self-cleavage was 2.45.
U87A U130A C145U gave a self-cleavage of 0.1.
With A77G U87C U134C the self-cleavage was 0.
In the case of U13C U26A G41A, the self-cleavage is reported as 0.99.
With A43G U47C U73C A141U the self-cleavage was 1.15.
For U13C A31U U102C, the self-cleavage was 0.7.
For U13C C56A U85C C146U, the self-cleavage was 0.19.
Variant U112A U130G A136G has a self-cleavage of 0.57.
U13C U15C U115C showed a self-cleavage of 0.94.
For A6U A22G C63U A67G U73C, the self-cleavage was 0.46.
